# Source: ChEMBL document CHEMBL4888484, “Replenishing the malaria drug discovery pipeline: Screening and hit evaluation of the MMV Hit Generation Library 1 (HGL1) against asexual blood stage Plasmodium falciparum ,using a nano luciferase reporter read-out” (2022)
# The campaign covered roughly 150,000 compounds. About 540 (0.36%) showed an effect of 50% or more. The list shows a part of the results.
# Test system: Plasmodium falciparum
# Assay: Primary screen in NF54 nanoGlo assay, in single point, at 2uM, 72h; a lower Z score goes with more inhibition
# Type: functional, Erythrocyte
# Conditions: timepoint 72 hour
SMILES,% Inhibition [%],Z score
CC(C)(C)OC(=O)CCc1cccnc1C(=O)O,-18,1.85
CCn1c(C[C@H]2CCN(S(=O)(=O)c3cc(F)cc(F)c3)C2)nc2cccnc21,-4,0.38
O=S(=O)(C[C@@H]1C[C@H]2COC[C@@H]2O1)NC1COc2ccccc2C1 (stereo partly drawn),-9,0.94
Cc1cc(F)c(CNC(=O)c2coc3c2C(=O)NCCC3)c(F)c1,-13,2.62
COCCN1C(=O)C[C@H](Nc2ccc3c(c2)CCC3)C1=O,36,-1.13
C[C@H]1c2ccc(F)cc2CCN1CC(=O)N1CCCC1,-7,1.34
CCCNC(=O)N1CCC[C@H](N(CCCN2CCCC2)C(=O)C(C)C)C1,-1,0.08
c1cc(CN2CCC[C@H](Nc3ccc4c(c3)OCCO4)C2)c2ccncc2c1,-7,1
COC(=O)[C@@H](NC(=O)Cc1csc(C)n1)C(C)(C)C,-14,1.77
Cc1ccc(F)c(NC(=O)c2sc(Nc3cccc(F)c3)nc2C)c1,5,-0.62
Cc1ccc(F)cc1S(=O)(=O)N1CC(=O)N(C2CCCC2)C2(CCCCC2)C1,-5,0.72
CC[C@@H](Cn1cnc2c(c1=O)CC(C)(C)CC2)OC,-3,0.49
Cc1ccc(C(=O)N2CCCCCCN(C)C(=O)[C@@H]3CCC[C@@H]32)s1,-8,1.37
O=C(COC(=O)c1cccc(S(=O)(=O)N2CCCc3ccccc32)c1)Nc1ccc2c(c1)OCO2,-3,0.31
COc1ccc(-c2csc(Nc3ncnc4ncccc34)n2)c(O)c1,28,-3.32
CN(CC(=O)Nc1cccc(Cl)c1)C(=O)[C@@H]1COCCN1CC1CCC1,-10,1.32
Cc1nnc(CCNC(=O)Nc2cccc3c4c(oc23)CCCC4)s1,3,-0.53
C[C@]1(O)CCN(c2ncccc2C(N)=O)C[C@H]1Cc1ccccc1,-7,1.06
O=C(O)Cn1nc(C2CC2)c2c(C(F)F)cc(-c3ccc(F)cc3)nc21,0,0.06
O=C(NC1CC1)c1nc(-c2ccccn2)nc2c1OCCO2,-4,0.46
C=CCNC(=O)COc1cccc(Cl)c1C#N,-7,1.41

SMILES,% Inhibition [%],Z score
CC(C)(NCC(=O)N1CCCCC1)c1ccc2c(c1)OCO2,5,-0.66
COc1ccnc(N(C)C2CCCC2)n1,-7,0.72
COc1cccc(-c2cc3n(n2)CCCN(C(=O)c2ccc(N4CCCC4=O)cc2)C3)c1,-15,1.68
CC(=O)N(Cc1csc([C@@H]2CCCO2)n1)S(=O)(=O)c1ccc(Br)cc1,-2,0.37
N#Cc1ccc(N[C@H]2CCN(C(=O)CCc3ccccc3)C2)cn1,-11,1.23
CC[C@@H](C(=O)NC1CCCCC1)N1CCS(=O)(=O)CC1,2,-0.24
COc1ccnc(N2CC(c3ncc(C4CC4)cn3)C2)n1,-8,1.19
COCCc1nsc(NCc2ccncc2)n1,-7,0.77
COc1ccc(C2(CC(=O)N[C@H]3CCCCNC3=O)CC(=O)N(C3CCCC3)C2=O)cc1 (stereo partly drawn),-15,2.71
COc1ccc(C2C(C(=O)N3CCC(Cc4ccccc4)CC3)c3ccccc3C(=O)N2C)cc1 (stereo not drawn),-11,1.8
N#C[C@@H](NC(=O)c1n[nH]c2ccccc12)c1cnn(-c2ccccc2)c1,-11,1.36
CCOC(=O)c1cn(C)c(=O)n(C)c1=O,-8,1.56
COC[C@@H](c1ccccn1)N(C)C(=O)c1cc(C)nc(C)n1,-15,1.94
COCCn1c(Cc2ccccc2F)nnc1N1CCN2CCCC[C@H]2C1,3,-0.58
CC(C)COc1ccccc1NC(=O)[C@@H]1CCCO1,-8,1.31
O=C(COC(=O)COc1ccccc1)Nc1ccc2c(c1)CCC2,-11,2.02
COc1cccc(CN2CCN3C(=O)NC[C@H]3C2)c1,-5,0.73
O=C(c1cc(O)ncn1)N1CCc2ccccc2C1,-13,2.24
Cc1ccc(NC(=O)Cn2cc(-c3ccccc3)c3ncn(C4CC4)c(=O)c32)c(C)c1,-7,1.03
Cc1cc2c3c([nH]c2cc1S(=O)(=O)N1CCCCC1)CC(C)(C)CC3=O,0,0.01
Cc1nc(-c2ccccc2)sc1[C@H](C)NC(=O)N(C)c1ccc(F)cc1,10,-1.42

SMILES,% Inhibition [%],Z score
Cc1ccc(C)c(S(=O)(=O)N(C)c2ccc(Oc3ncnc4ccccc34)cc2)c1,2,-0.39
Cc1cc(C)n(C[C@H](C)NCc2ccc(-c3ncon3)cc2)n1,10,-1.93
COc1ccc2cccc(NC(=O)c3cc(-c4cc(OC)c(OC)c(OC)c4)n[nH]3)c2n1,44,-4.69
Cc1noc(C)c1CNc1nc2cc(Cl)ccc2n1C,13,-1.53
CCOC1CC(NC(=O)C2CCOCC2)C12CCCCC2 (stereo not drawn),-7,1.06
COC[C@H]1NC(=O)CC[C@H]1C(=O)N1CCc2ccccc21,-3,0.51
COc1cccc(CC(=O)N2CCC[C@H](CN3CCOCC3)CC2)c1,7,-1.17
Cc1cccc(C)c1C=CC1CCN(C(=O)CN2CCC(C)CC2)CC1,-1,0.17
O=C(COc1ccccc1)N1CC(OCc2ccc(Cl)cc2)C1,-12,2.01
CN(CC(=O)N(C)Cc1cccc(C(F)(F)F)c1)Cc1cccnc1,-4,0.61
CN(C)C(=O)c1cn[nH]c1NC(=O)CCCNC(=O)OC(C)(C)C,-7,1.28
CC(NCC(O)C(F)(F)F)C1(N2CCOCC2)CCCC1 (stereo not drawn),-6,0.77
CC(NCC1CCCOC1)c1ccccc1Cl (stereo not drawn),-1,0.09
O=C(NCc1ccccc1F)c1nnc(C(=O)Nc2ccc(F)cc2)s1,-12,1.07
Cc1noc(C)c1CCC(=O)N1CCC(S(=O)(=O)c2ccc(F)cc2)CC1,-15,1.97
CC(=O)Nc1nc2c(s1)CN(S(=O)(=O)c1cccnc1)CC2,-9,1.27
CCC1CCCCN1CC(=O)N1CCOC(C)C1 (stereo not drawn),-14,2.19
CC(C)N1CCN(C(=O)c2cnc(N)s2)C[C@@H]1C,0,0.03
CCC1(CO)CCN(c2nc3c(s2)c(C)nn3C)CC1,-13,1.67
CCNC(=O)N(Cc1nc(CC)c(Cc2ccc(OC)cc2)c(=O)[nH]1)Cc1ccco1,-5,0.45
CO[C@H]1CN(C(=O)Cc2ccc(C)cc2)C[C@@H]1O,-21,2.71

SMILES,% Inhibition [%],Z score
c1cc2c(cc1OCc1noc3c1CCCC3)OCO2,-11,1.31
CC(=O)NC[C@H]1CN(c2nccn3nc(C(C)(C)C)cc23)CCO1,-3,0.5
CC1(C2CCN(C(=O)c3c(Cl)cccc3Cl)CC2)OCCO1,31,-0.38
CN(CCc1noc(C(F)(F)F)n1)C(=O)c1scc2c1OCCO2,-16,3.43
CN1CCN(C[C@@H]2CN(Cc3ccc(F)c(Cl)c3F)C[C@@H]2CO)CC1,1,-0.15
CCOC(=O)N(C)C1CCN(C(=O)c2ccc(C3CCC3)cc2)CC1,-9,1.19
CC(C)(C)CC(=O)N(Cc1ccco1)Cc1cc(Cl)ccc1OS(C)(=O)=O,3,-0.47
Cc1nn(CCC(=O)c2ccc(Cl)cc2)c(C)c1Cl,-16,1.89
COCc1nc(COC)n(Cc2cccc(Cl)c2)n1,-5,0.9
CCc1cn[nH]c1[C@H]1CCCN(C(=O)c2cc(-c3c(C)nn(C)c3C)nn2C)C1,-11,2.17
Cc1cnc(CNC(=O)[C@H](C)c2n[nH]c(=O)c3ccccc23)cn1,-1,0.11
c1ccc(CNc2nc(-c3cnccn3)ns2)cc1,10,-1.22
COc1cccc(CNS(=O)(=O)c2ccc(-c3nnc(C4CC4)o3)s2)c1,3,-0.49
CC(C)[C@@H](C(=O)NCc1cccc(C(F)(F)F)c1)N1CCCS1(=O)=O,-4,0.83
COCCNC(=O)[C@@H]1C[C@@H](O)CN1C1CCN(C(=O)c2nccc3ccccc23)CC1,-4,0.52
CC(C)C[C@@H]1NC2(CCN(S(=O)(=O)c3cccc(Cl)c3Cl)CC2)N(Cc2cccc(C(F)(F)F)c2)C1=O,-8,1.3
CCN(C1CC1)S(=O)(=O)CCCS(=O)(=O)N(CC)C1CC1,-11,1.22
COc1ccc(NC(=O)Cn2cc(S(=O)(=O)c3ccc(OC)cc3)c(=O)c3ccc(C)nc32)cc1,-20,3.24
CC(=Cc1ccccc1)CN1CC[C@@]2(C1)NC(=O)N(C)C2=O,-1,0.22
O=C(CN1CCn2nc(CO)cc2C1)N1CCCCCC1,3,-0.35
CCC(C)C1NC2(CCN(C(=O)c3ccccc3)CC2)N(Cc2cccc(C(F)(F)F)c2)C1=O (stereo not drawn),3,-0.34
